Among the data in PubChem BioAssay (NCI) are growth values, retold here.

Molecules are shown by their SMILES. Some structures have more than one record in an assay (separate samples or runs), and their calls can disagree.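 Interpretation: 100, growth as untreated; towards 0, rising growth inhibition; 0, no net growth; 0 to -100, cell death. Compounds scoring below 10 were considered active.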 A number of entries come with more than one value. The list is limited to them. The source may hold further records. This drug was run again and again over the years, at the concentration stated with the values; one value stands for one run. Counts like (3×) give the number of equal values in this list.

For one assay, the system named is A549/ATCC NSCLC. As to the kind of experiment: NCI-60 one-dose screen, 48 h (100 = growth as untreated, 0 = no growth, -100 = all killed). Particulars: 2.5 mM.
The subject of the next assay is 786-0 renal. The assay is described as above. Particulars: 2.5 mM.

As to `O=c1[nH]cc(F)c(=O)[nH]1`, the growth result in the assay with A549/ATCC NSCLC (runs of 1996) is “inactive: 26.7, 62.7, 21, 11.8, 14.2, 28.1, 13.3, 17.5, 21.8, 14.9, 10.8, 15.4, 14.7, 15.8 (2×), 16.2, 17.8, 18.5, 10.2 (2×), 12.5, 36, 13.6, 26% and active: 4.36 (2×), 3.78, 4.45, -5.79, 3.51, 0.127, 0.872, 6.16, -43.6, 1.87, 7.6, 7.43, 5.64, 7.23, 7.56 (2×), -1.45, 5.09, 9.73, 9.23, -42.5, 4.71, -3.75, 8.16, 8.04, -5.57, -20.7%”; in the assay on A549/ATCC NSCLC (runs of 1997) it was “active: 9.78, 2.89, -11.5, -19.6, 7.77, 8.73, 8.66, 9.2, 6.04, -1.83, 3.38, 3.88, 7.65, 5.67, -18.3, 9.34, 6.83, -3.95, -32.8% and inactive: 10.7, 18.2, 18.1, 14.3 (2×), 10.8, 16.4 (2×), 19.8, 12.8, 69.5, 15.3, 19.3, 15.5, 11.2, 17.5, 10.9, 12.1, 14.1, 15.9, 15.4, 36.5, 12.2, 15.1, 15.2, 10.6, 11.4%”; in the assay on A549/ATCC NSCLC (runs of 1998), “active: -51.4, 6.99, 7.66, 2.22, 3.88, 2.7, -5.3, -54.3, -16.2, 4.92, 7.5, 2.46, 2.89, -26.3, 9.16, 0.0377, 7.99, 8.23, -10.4% and inactive: 17.5, 14.6, 14.7, 13, 13.3 (2×), 18.8%”; in the assay on A549/ATCC NSCLC (runs of 1999), “inactive: 17.5, 20.3, 14.3, 37, 15.9, 11.7% and active: -100 (2×), -55.6, -83.2, -56.5, -77, -13.5, 0.464, -73.7, -87.1, -60.1, -61.7%”; in the assay on A549/ATCC NSCLC (runs of 2000), “active: -82.6, -25.3, -46.8, -73%”; in the assay with 786-0 renal (runs of 1991), “active: -11.8, -0.922, 4.11, 6.99, 2.47, -12.5, -32.1, 4.31, -75.5, -20.2, 5.34, -74.1, -23.2, -11.1, 8.4, 3.7, -28.8% and inactive: 17%, 11.4%”. Moreover, the growth result in the assay with 786-0 renal (runs of 1992) is “active: 0.67, 2.97, 0.814, -7.21, -10.5, 5.8, 1.63, -29, 6.42, -49, -34.7, -31.1, -42.1, -10.2, 8.55, -28, 3.49, -42.9, -11.6, -56.2, -34.8, 0.372, -22.6, 3.57, -8.33, -70.6, -76.8, -28.4, -48.8, -21.8, -32.8, -56.9, 3.87, -12.1, 0.743, -33.2, -44.2, 8.88, 0.926, 7.42, -63.3, -49.1, -9.62, 8.19, 3.42, 6.79, -28.7, -12.9, -53.8, -41, 2.48, 1.3, -14, 7.62, 9.03, 1.79, -51.9, 0.398, -66.7, -12.8, -50.6, -52.8, -8.65, 6.29, 7.68, 4.82, 0.146, -13.4, 0.97, -4.46, -14.3, -69.7, 1.51, -17.2, -32.1, 9.32, -5.35, -13.9, -73.8 (2×), -40.9, 1.55, -72, -34.1, -24.8, -23.9, -23.4, -7.46, -1.3, -18.6, -46.2, -15.6, -36.6, -27.3, -16, -9.17% and inactive: 14.6, 72.3, 12.4, 17.7, 12.3, 19.5, 18.9, 101, 40.1, 11.2, 19.3, 11.5, 13.9, 11.8, 16.4, 29.2, 48.9, 11.9, 54.8, 13.6%”; in the assay on 786-0 renal (runs of 1993), “inactive: 13.6, 25.5, 33.3, 21.7, 21.5, 35.7, 13.2, 16.4, 22.1, 16.5, 12.7, 13.3, 11.6, 13.1, 11.9, 24.8, 92.2, 16.3, 78.3, 12.5, 24, 16% and active: 0.736, -3.64, -40.7, -15.2, -28.4, -9.96, -22.8, 5.6, 4.43, -38.7, -72.2, -12.9, 5.83, -9.73, 0.994, -25.7, -3.28, -63.9, -21, 9.46, 9.34, -13.8, 0.44, -17.7%”; with 786-0 renal (runs of 1994), “inactive: 12.3, 22.1, 12.2, 11.5, 16.3, 10, 14.9, 20.3, 33, 11.7, 11.4, 22, 16.4% and active: -69.3, -46.7, 4.45, -49.8, -18.9, -19, -20.9, -17.1, -52.9, 0.905, 2.3, -22.9, 3.63, 4.5, -78.7, -12.7, -47.6, 5.59, -12, -0.532, -34.7, 4.43%”; with 786-0 renal (runs of 1995), “inactive: 24.9, 13.8, 13.3, 10.4 (2×), 13.4, 20, 17.4, 13.1, 28.1, 16.1, 24.5, 18.5 (2×), 15.3, 23, 12.5, 28.8, 46.5, 21, 18.7% and active: -24.3, -40.1, -17.4, 8.79, -17.3, -22.1, 5.71, -35.9, 8.04, 8.45, 8.38, 6.43, -5.32, -34.2, 9.68, -50.8, 6.24, 4.7%”; in the assay on 786-0 renal (runs of 1996), “active: 9.56, -44.6, 6.08, 7.68, -7.04, 5.56, 4.09, 2.01, 9.6, 4.36, -14.4, -15, 3.4, -38.1, -25.7, 2.86, 9.61, 4.99, 5.87, -32.6, 2.88, 4.94, -13.7, 2.25, -7.64% and inactive: 12.7, 12, 15.6, 10.2, 11.6 (2×), 20.2 (2×), 16.8, 15.4 (3×), 11.7, 17.9, 19.9, 13.9, 20.5 (2×), 18, 25.3, 10.5, 18.7, 24.4, 15.5, 14.7, 12.1, 16.2, 23.9, 26.6, 15.2, 24.7, 19.2, 20.6%”; with 786-0 renal (runs of 1997) it was “active: -14.8, 5.75, 1.92, 5.02, -8.09, 0.155, -17.8, 9.03, -30.7, 1.04, -15.2, 8.04, -34.2, 2.98, -31.7, -7.45, 4, -59.5, 0.689, 6.27, 8.65, -32.8, 5.34, 8.99, 7.86, -7.41, 0.64, -15.5, -56.6% and inactive: 20.1, 19.2, 21.2, 12.7, 17, 15.6, 21.8, 10.3, 32.4, 11.5, 83, 23.5, 12, 13.8%”. Besides, the growth entry is “active: -12.6, 5.31, 2.66, -30.2, -18.4, -7.66, -22.3, -19.2, 1.97, 6.34, 3.45% and inactive: 11.2, 26.4, 27.1, 13.7, 22, 16.2, 18.5, 22.6, 19.9, 14.9, 39%” with 786-0 renal (runs of 1998); “active: -29.4, -12.9, 1.09, 3.04, 2.75, 3.27, 4.01, 2.15, 1.51, 2.87, 0.429, 1.92% and inactive: 24.5, 12.1, 17.7, 22.7%” with 786-0 renal (runs of 1999); “active: -67.3, 2.04, 3.19, 1.7%” with 786-0 renal (runs of 2000).
